{"source": "the supplement of paper PMC8728848", "binders": {"B1": {"name": "Mg1lysM (Mycosphaerella graminicola) (protein)", "chain": "QRNPITITPQFDCGATNSQQYVARSGDTLTKIAQEIYHDVVGVCDIARANNLADPNRIDAGTPYTIPINCQTYDRNSCL"}}, "experiment_in_all_cases": "glycan array binding signal (z-score within array); higher = stronger binding", "conditions_in_all_cases": "glycan notation: IUPAC condensed, linker removed", "key": {"GalNAc(b1-4)GlcNAc": {"biological_target": "GalNAc(b1-4)GlcNAc", "summary_of_the_method": "(§1)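 Negative Z-scores can be read as non-binding. The Z-score is calculated within each array and then averaged across arrays of one protein sequence at different concentrations or buffers and across linkers. Arrays, 3228 in all, were curated from the Consortium for Functional Glycomics database and kept only where the protein sequence was available.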"}, "[1]": {"biological_target": "GalNAc(b1-4)GlcNAc(b1-2)Man", "summary_of_the_method": "as §1"}, "[2]": {"biological_target": "GalNAc(b1-4)GlcNAc(b1-2)Man(a1-3)[GalNAc(b1-4)GlcNAc(b1-2)Man(a1-6)]Man(b1-4)GlcNAc(b1-4)GlcNAc", "summary_of_the_method": "as §1"}, "[3]": {"biological_target": "GalNAc(b1-4)GlcNAc(b1-3)GalNAc(b1-4)GlcNAc", "summary_of_the_method": "as §1"}, "GalNAc(b1-4)GlcNAc6S": {"biological_target": "GalNAc(b1-4)GlcNAc6S", "summary_of_the_method": "as §1"}, "GalNAc(b1-6)GalNAc": {"biological_target": "GalNAc(b1-6)GalNAc", "summary_of_the_method": "as §1"}, "GalNAc3S(b1-4)GlcNAc": {"biological_target": "GalNAc3S(b1-4)GlcNAc", "summary_of_the_method": "as §1"}, "GalNAc3S(b1-4)GlcNAc3S": {"biological_target": "GalNAc3S(b1-4)GlcNAc3S", "summary_of_the_method": "as §1"}, "[4]": {"biological_target": "GalNAc3S(b1-4)[Fuc(a1-3)]GlcNAc", "summary_of_the_method": "as §1"}, "GalNAc4S6S(b1-4)GlcNAc": {"biological_target": "GalNAc4S6S(b1-4)GlcNAc", "summary_of_the_method": "as §1"}, "GalNAc6S(b1-4)GlcNAc": {"biological_target": "GalNAc6S(b1-4)GlcNAc", "summary_of_the_method": "as §1"}, "Glc(a1-4)Glc": {"biological_target": "Glc(a1-4)Glc", "summary_of_the_method": "as §1"}, "[5]": {"biological_target": "Glc(a1-4)Glc(a1-4)Glc(a1-4)Glc", "summary_of_the_method": "as §1"}, "Glc(a1-6)Glc(a1-6)Glc": {"biological_target": "Glc(a1-6)Glc(a1-6)Glc", "summary_of_the_method": "as §1"}, "[6]": {"biological_target": "Glc(a1-6)Glc(a1-6)Glc(a1-6)Glc", "summary_of_the_method": "as §1"}, "Glc(b1-4)Glc": {"biological_target": "Glc(b1-4)Glc", "summary_of_the_method": "as §1"}, "Glc(b1-6)Glc": {"biological_target": "Glc(b1-6)Glc", "summary_of_the_method": "as §1"}, "GlcA(b1-3)Gal": {"biological_target": "GlcA(b1-3)Gal", "summary_of_the_method": "as §1"}, "GlcA(b1-3)GlcNAc": {"biological_target": "GlcA(b1-3)GlcNAc", "summary_of_the_method": "as §1"}, "GlcA(b1-6)Gal": {"biological_target": "GlcA(b1-6)Gal", "summary_of_the_method": "as §1"}, "[7]": {"biological_target": "GlcA3S(b1-3)Gal(b1-4)GlcNAc(b1-2)Man", "summary_of_the_method": "as §1"}, "[8]": {"biological_target": "GlcA3S(b1-3)Gal(b1-4)GlcNAc(b1-3)Gal(b1-4)Glc", "summary_of_the_method": "as §1"}, "[9]": {"biological_target": "GlcNAc(a1-3)Gal(b1-4)GlcNAc", "summary_of_the_method": "as §1"}, "[10]": {"biological_target": "GlcNAc(a1-4)Gal(b1-3)GlcNAc", "summary_of_the_method": "as §1"}, "[11]": {"biological_target": "GlcNAc(a1-4)Gal(b1-4)GalNAc", "summary_of_the_method": "as §1"}, "[12]": {"biological_target": "GlcNAc(a1-4)Gal(b1-4)GlcNAc", "summary_of_the_method": "as §1"}, "[13]": {"biological_target": "GlcNAc(a1-4)Gal(b1-4)GlcNAc(b1-3)Gal(b1-4)Glc", "summary_of_the_method": "as §1"}, "[14]": {"biological_target": "GlcNAc(a1-4)Gal(b1-4)GlcNAc(b1-3)Gal(b1-4)GlcNAc", "summary_of_the_method": "as §1"}, "[15]": {"biological_target": "GlcNAc(a1-4)Gal(b1-4)GlcNAc(b1-3)Gal(b1-4)GlcNAc(b1-3)Gal(b1-4)GlcNAc", "summary_of_the_method": "as §1"}, "[16]": {"biological_target": "GlcNAc(a1-4)Gal(b1-4)GlcNAc(b1-3)Gal(b1-4)[Fuc(a1-3)]GlcNAc(b1-3)Gal(b1-4)[Fuc(a1-3)]GlcNAc", "summary_of_the_method": "as §1"}, "[17]": {"biological_target": "GlcNAc(a1-6)Gal(b1-4)GlcNAc", "summary_of_the_method": "as §1"}, "[18]": {"biological_target": "GlcNAc(b1-2)Gal(b1-3)GalNAc", "summary_of_the_method": "as §1"}, "[19]": {"biological_target": "GlcNAc(b1-2)Man(a1-3)[GlcNAc(b1-2)Man(a1-6)]Man(b1-4)GlcNAc(b1-4)GlcNAc", "summary_of_the_method": "as §1"}, "[20]": {"biological_target": "GlcNAc(b1-2)Man(a1-3)[GlcNAc(b1-2)Man(a1-6)]Man(b1-4)GlcNAc(b1-4)[Fuc(a1-6)]GlcNAc", "summary_of_the_method": "as §1"}, "[21]": {"biological_target": "GlcNAc(b1-2)Man(a1-3)[GlcNAc(b1-4)][GlcNAc(b1-2)Man(a1-6)]Man(b1-4)GlcNAc(b1-4)GlcNAc", "summary_of_the_method": "as §1"}, "[22]": {"biological_target": "GlcNAc(b1-2)Man(a1-3)[GlcNAc(b1-4)][GlcNAc(b1-2)Man(a1-6)]Man(b1-4)GlcNAc(b1-4)[Fuc(a1-6)]GlcNAc", "summary_of_the_method": "as §1"}, "[23]": {"biological_target": "GlcNAc(b1-2)[GlcNAc(b1-4)]Man(a1-3)[GlcNAc(b1-2)Man(a1-6)]Man(b1-4)GlcNAc(b1-4)GlcNAc", "summary_of_the_method": "as §1"}, "[24]": {"biological_target": "GlcNAc(b1-2)[GlcNAc(b1-4)]Man(a1-3)[GlcNAc(b1-4)][GlcNAc(b1-2)Man(a1-6)]Man(b1-4)GlcNAc(b1-4)GlcNAc", "summary_of_the_method": "as §1"}, "[25]": {"biological_target": "GlcNAc(b1-2)[GlcNAc(b1-4)]Man(a1-3)[GlcNAc(b1-4)][GlcNAc(b1-2)[GlcNAc(b1-6)]Man(a1-6)]Man(b1-4)GlcNAc(b1-4)GlcNAc", "summary_of_the_method": "as §1"}, "[26]": {"biological_target": "GlcNAc(b1-2)[GlcNAc(b1-4)]Man(a1-3)[GlcNAc(b1-4)][GlcNAc(b1-2)[GlcNAc(b1-6)]Man(a1-6)]Man(b1-4)GlcNAc(b1-4)[Fuc(a1-6)]GlcNAc", "summary_of_the_method": "as §1"}, "[27]": {"biological_target": "GlcNAc(b1-2)[GlcNAc(b1-6)]Man(a1-6)[GlcNAc(b1-2)Man(a1-3)]Man(b1-4)GlcNAc(b1-4)GlcNAc", "summary_of_the_method": "as §1"}, "[28]": {"biological_target": "GlcNAc(b1-2)[GlcNAc(b1-6)]Man(a1-6)[GlcNAc(b1-2)Man(a1-3)]Man(b1-4)GlcNAc(b1-4)[Fuc(a1-6)]GlcNAc", "summary_of_the_method": "as §1"}, "[29]": {"biological_target": "GlcNAc(b1-2)[GlcNAc(b1-6)]Man(a1-6)[GlcNAc(b1-4)][GlcNAc(b1-2)Man(a1-3)]Man(b1-4)GlcNAc(b1-4)GlcNAc", "summary_of_the_method": "as §1"}, "GlcNAc(b1-3)Fuc": {"biological_target": "GlcNAc(b1-3)Fuc", "summary_of_the_method": "as §1"}, "GlcNAc(b1-3)Gal": {"biological_target": "GlcNAc(b1-3)Gal", "summary_of_the_method": "as §1"}}, "note": "The other results are listed elsewhere or left out.", "data": [{"binder": "B1", "values": [{"measurement": "glycan array binding signal (z-score)", "setting": "GalNAc(b1-4)GlcNAc", "result": -0.062}, {"measurement": "glycan array binding signal (z-score)", "setting": "[1]", "result": -0.062}, {"measurement": "glycan array binding signal (z-score)", "setting": "[2]", "result": -0.092}, {"measurement": "glycan array binding signal (z-score)", "setting": "[3]", "result": -0.075}, {"measurement": "glycan array binding signal (z-score)", "setting": "GalNAc(b1-4)GlcNAc6S", "result": -0.084}, {"measurement": "glycan array binding signal (z-score)", "setting": "GalNAc(b1-6)GalNAc", "result": -0.074}, {"measurement": "glycan array binding signal (z-score)", "setting": "GalNAc3S(b1-4)GlcNAc", "result": -0.078}, {"measurement": "glycan array binding signal (z-score)", "setting": "GalNAc3S(b1-4)GlcNAc3S", "result": -0.057}, {"measurement": "glycan array binding signal (z-score)", "setting": "[4]", "result": 0.01}, {"measurement": "glycan array binding signal (z-score)", "setting": "GalNAc4S6S(b1-4)GlcNAc", "result": -0.069}, {"measurement": "glycan array binding signal (z-score)", "setting": "GalNAc6S(b1-4)GlcNAc", "result": -0.049}, {"measurement": "glycan array binding signal (z-score)", "setting": "Glc(a1-4)Glc", "result": -0.072}, {"measurement": "glycan array binding signal (z-score)", "setting": "[5]", "result": -0.073}, {"measurement": "glycan array binding signal (z-score)", "setting": "Glc(a1-6)Glc(a1-6)Glc", "result": -0.056}, {"measurement": "glycan array binding signal (z-score)", "setting": "[6]", "result": -0.054}, {"measurement": "glycan array binding signal (z-score)", "setting": "Glc(b1-4)Glc", "result": -0.067}, {"measurement": "glycan array binding signal (z-score)", "setting": "Glc(b1-6)Glc", "result": -0.076}, {"measurement": "glycan array binding signal (z-score)", "setting": "GlcA(b1-3)Gal", "result": -0.055}, {"measurement": "glycan array binding signal (z-score)", "setting": "GlcA(b1-3)GlcNAc", "result": -0.09}, {"measurement": "glycan array binding signal (z-score)", "setting": "GlcA(b1-6)Gal", "result": -0.062}, {"measurement": "glycan array binding signal (z-score)", "setting": "[7]", "result": -0.053}, {"measurement": "glycan array binding signal (z-score)", "setting": "[8]", "result": -0.083}, {"measurement": "glycan array binding signal (z-score)", "setting": "[9]", "result": -0.079}, {"measurement": "glycan array binding signal (z-score)", "setting": "[10]", "result": -0.015}, {"measurement": "glycan array binding signal (z-score)", "setting": "[11]", "result": -0.079}, {"measurement": "glycan array binding signal (z-score)", "setting": "[12]", "result": -0.043}, {"measurement": "glycan array binding signal (z-score)", "setting": "[13]", "result": -0.084}, {"measurement": "glycan array binding signal (z-score)", "setting": "[14]", "result": -0.079}, {"measurement": "glycan array binding signal (z-score)", "setting": "[15]", "result": -0.078}, {"measurement": "glycan array binding signal (z-score)", "setting": "[16]", "result": -0.067}, {"measurement": "glycan array binding signal (z-score)", "setting": "[17]", "result": -0.098}, {"measurement": "glycan array binding signal (z-score)", "setting": "[18]", "result": -0.066}, {"measurement": "glycan array binding signal (z-score)", "setting": "[19]", "result": -0.057}, {"measurement": "glycan array binding signal (z-score)", "setting": "[20]", "result": -0.043}, {"measurement": "glycan array binding signal (z-score)", "setting": "[21]", "result": -0.08}, {"measurement": "glycan array binding signal (z-score)", "setting": "[22]", "result": -0.072}, {"measurement": "glycan array binding signal (z-score)", "setting": "[23]", "result": -0.068}, {"measurement": "glycan array binding signal (z-score)", "setting": "[24]", "result": -0.09}, {"measurement": "glycan array binding signal (z-score)", "setting": "[25]", "result": -0.088}, {"measurement": "glycan array binding signal (z-score)", "setting": "[26]", "result": -0.071}, {"measurement": "glycan array binding signal (z-score)", "setting": "[27]", "result": -0.074}, {"measurement": "glycan array binding signal (z-score)", "setting": "[28]", "result": -0.049}, {"measurement": "glycan array binding signal (z-score)", "setting": "[29]", "result": -0.052}, {"measurement": "glycan array binding signal (z-score)", "setting": "GlcNAc(b1-3)Fuc", "result": -0.089}, {"measurement": "glycan array binding signal (z-score)", "setting": "GlcNAc(b1-3)Gal", "result": -0.07}]}]}
